Measurements taken from PubChem BioAssay AID1645887 (National Center for Advancing Translational Sciences (NCATS), 2021).
Hit rate of the full screen: of about 16,000 compounds, about 40 (0.2%) were called active. Not shown: some 1% with an inconclusive outcome. Calls follow the shape of the dose curve; as a rule, active = well fitted activation curve with a large enough effect; inconclusive = small, poorly fitted or top-dose-only effect, or another doubt; inactive = no such curve, though single readings can be large or run the other way. The list shows a part of the results.

These molecules were tested against Rap guanine nucleotide exchange factor 4 (Homo sapiens) (UniProt Q8WZA2) (assay: Validation qHTS for agonist of cAMP-regulated guanine nucleotide exchange factor 4 (EPAC2)). Settings: EPAC2 Rap1B BODIPY-GDP exchange, fluorescence; activation: stronger effect = higher value.
Procedure, shortened: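 Fluorescent exchange assay: 100 nM EPAC2 with 250 nM RAP1B-BODIPY-GDP and 50 uM GDP; compound added, 5 min at room temperature, then read (ex 480/em 540 nm) every 5 min for 30 min. Normalized to 6.5 mM cAMP agonist control.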
% is scaled to controls: 0 for no effect and ±100 for the full control effect.
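Also: exchange makes BODIPY-GDP fluorescence drop when released from Rap1B; series mostly up to about 150 µM.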

Chain of UniProt Q8WZA2 (Q8WZA2 whole entry, looked up): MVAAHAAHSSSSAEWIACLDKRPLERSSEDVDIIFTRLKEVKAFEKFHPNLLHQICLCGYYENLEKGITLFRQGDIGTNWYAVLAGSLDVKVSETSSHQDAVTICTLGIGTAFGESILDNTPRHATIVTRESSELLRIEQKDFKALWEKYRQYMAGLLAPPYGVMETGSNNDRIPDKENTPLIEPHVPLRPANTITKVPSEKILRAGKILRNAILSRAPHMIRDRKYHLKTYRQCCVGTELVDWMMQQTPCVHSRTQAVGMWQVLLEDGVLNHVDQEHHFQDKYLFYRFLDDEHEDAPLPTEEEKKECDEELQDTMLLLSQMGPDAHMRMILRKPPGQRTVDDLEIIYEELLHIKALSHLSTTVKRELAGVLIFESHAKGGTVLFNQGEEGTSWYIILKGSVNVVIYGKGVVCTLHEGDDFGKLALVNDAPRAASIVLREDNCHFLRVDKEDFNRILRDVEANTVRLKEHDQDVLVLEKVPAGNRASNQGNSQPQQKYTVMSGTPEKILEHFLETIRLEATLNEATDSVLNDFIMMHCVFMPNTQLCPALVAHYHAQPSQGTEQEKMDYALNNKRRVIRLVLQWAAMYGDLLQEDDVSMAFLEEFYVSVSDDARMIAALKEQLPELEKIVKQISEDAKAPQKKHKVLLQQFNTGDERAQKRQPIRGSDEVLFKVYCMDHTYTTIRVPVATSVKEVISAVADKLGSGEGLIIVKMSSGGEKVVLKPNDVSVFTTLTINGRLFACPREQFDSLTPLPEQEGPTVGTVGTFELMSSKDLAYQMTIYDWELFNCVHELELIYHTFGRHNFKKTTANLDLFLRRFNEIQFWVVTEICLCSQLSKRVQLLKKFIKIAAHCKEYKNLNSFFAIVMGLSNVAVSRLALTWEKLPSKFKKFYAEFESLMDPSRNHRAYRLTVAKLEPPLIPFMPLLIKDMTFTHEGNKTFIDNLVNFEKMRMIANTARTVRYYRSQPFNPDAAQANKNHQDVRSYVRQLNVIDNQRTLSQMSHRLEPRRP

activation, inactive:
COc1ccc2[nH]cc(CCNc3ncncc3-c3cccnc3)c2c1 -2.51%
N#Cc1ccc(CN2CCC3(CC2)CCN(C(=O)c2csnn2)CC3)cc1 -13.8%
COC1=C(OC)C(=O)C(C/C=C(\C)CC/C=C(\C)CC/C=C(\C)CC/C=C(/C)CC/C=C(\C)CC/C=C(\C)CC/C=C(\C)CC/C=C(\C)CC/C=C(\C)CCC=C(C)C)=C(C)C1=O -7.79%
COc1cc(-c2noc(C)c2C#Cc2nccn2C)cc(OC)c1OC -8.78%
COc1ccc(C2CC(=O)c3c(O)cc(OC4OC(COC5OC(C)C(O)C(O)C5O)C(O)C(O)C4O)cc3O2)cc1O (centres undefined) 3.56%
O=C(O)CO.[NH2-].[NH2-].[Pt+2] 7.19%
Cn1cc(-c2nc3cnc(N4CCNCC4)nc3n(CCC#N)c2=O)c2ccccc21 7.73%
COc1cccc(C(=O)NCCN2CCN(c3ccc(Cl)cc3)CC2)c1 -38.6%
CCCOc1ccccc1-c1nc2n[nH]nc2c(=O)[nH]1 4.82% [middle of 4 runs]
CN(C)c1ccc(-c2cncnc2NCCN2CCOCC2)cc1 -33.8%
COc1ccccc1N1CCN(C[C@@H]2CN3C(=O)N(C)c4ccccc4C3=N2)CC1 -22.3%
Cc1cc2c(cc1C)N[C@]1(C[C@H]3CCCC(=O)N4CC[C@@H](C1)[C@@H]34)C(=NC1CCCCC1)N2 -24.6%
Cn1cccc1C(=O)N1CCC[C@@]2(CCN(Cc3cc(C(F)(F)F)cc(C(F)(F)F)c3)C2)C1 -39.6%
O=Cc1cc2ccccc2cc1O -22.5%
CCCCC(C=O)NC(=O)C(CC(C)C)NC(=O)OCc1ccccc1 (centres undefined) -21.3%
N#CCCn1c(=O)c(-c2ccc(Cl)cc2)nc2cnc(Oc3ccccc3)nc21 -3.65%
O=C(c1cnn(-c2nccc(-c3ccco3)n2)c1C1CC1)N1CCCCC1c1cccnc1 (centres undefined) -4.51%
COc1ccc(Cl)cc1-c1cc2c(c(OC)c1)OCCN(Cc1cccn1-c1nccs1)C2 -5.56%
CC(=O)Oc1cccc(C)c1 3.83%
c1cncc(-c2ccc3ncnc(N4CCNCC4)c3c2)c1 2.16%
CC[N+](C)(C)c1ccc(/C=C/c2ccncc2)cc1 -14.9%
COc1ccc(C2(C(=O)NCC3Cc4cccc(-c5cccnc5)c4O3)CCCC2)cc1 (centres undefined) 0.108%
FC(F)(F)COCC(F)(F)F -12.9%
COc1cccc2c1C(=O)CC(c1ccccc1)O2 (centres undefined) 2.55%
